Assay results reported in PubChem BioAssay AID1768 (National Center for Advancing Translational Sciences (NCATS), 2009).
In all, about 270,000 compounds went through this assay and about 620 (0.23%) were called active. Inconclusive means that the source gave no clear call. Such entries were picked first, then a sample of the others. Calls follow the shape of the dose curve; as a rule, active = well fitted inhibition curve with a large enough effect in the polarisation, with a control signal flat (not every such curve was filed as active); inconclusive = small, poorly fitted or top-dose-only effect, or effect the other way, or a change in a side signal; inactive = no such curve, though single readings can be large or run the other way; the % refers to the polarisation. A potency beside an inconclusive call is a rough fit, not a confirmed value. A note “side channel” means that the fit belongs to a control or component signal, not to the main read-out.

What follows are compounds tested against Menin (Homo sapiens) (UniProt O00255) (assay: qHTS Assay for Inhibitors Targeting the Menin-MLL Interaction in MLL Related Leukemias: Competition With Texas Red Labeled MLL-derived Mutant Peptide). Settings: fluorescence polarization; FP activity change, negative = inhibition: at 61.6 µM (top of the series).
For FP activity change, negative = inhibition in this document: % of control where 0% means no effect.
Potency is read from the fitted curve at half-maximal effect; tags tell the direction and shape of the fitted curve or compound fluorescence and quenching.

UniProt O00255, sequence (O00255 whole entry, looked up): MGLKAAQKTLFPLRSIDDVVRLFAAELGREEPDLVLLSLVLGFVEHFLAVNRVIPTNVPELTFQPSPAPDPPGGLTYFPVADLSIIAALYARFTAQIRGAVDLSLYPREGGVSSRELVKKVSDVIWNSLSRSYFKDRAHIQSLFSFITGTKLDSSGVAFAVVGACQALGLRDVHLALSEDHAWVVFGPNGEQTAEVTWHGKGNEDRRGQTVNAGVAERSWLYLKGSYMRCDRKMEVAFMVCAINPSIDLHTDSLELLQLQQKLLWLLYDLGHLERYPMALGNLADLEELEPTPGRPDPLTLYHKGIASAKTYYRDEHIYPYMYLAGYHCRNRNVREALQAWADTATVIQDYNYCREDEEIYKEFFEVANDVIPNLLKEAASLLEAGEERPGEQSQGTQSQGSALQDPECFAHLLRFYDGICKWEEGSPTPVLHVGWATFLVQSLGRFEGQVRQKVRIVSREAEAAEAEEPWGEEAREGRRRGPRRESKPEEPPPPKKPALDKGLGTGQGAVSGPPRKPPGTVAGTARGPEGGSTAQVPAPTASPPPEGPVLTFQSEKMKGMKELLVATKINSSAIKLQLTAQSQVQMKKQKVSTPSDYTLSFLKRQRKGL

Row | SMILES | Potency | FP activity change, negative = inhibition
1 | CCN(CC)CCSc1nc2ccccc2c(=S)n1-c1ccccc1 | inconclusive: 14.1 µM [inhibitor, partial curve] | 
2 | COc1ccc(-c2nc(C#N)c(N3CCOCC3)o2)cc1OC | inactive | 
3 | C=CCN1c2ccccc2[C@]23C[C@@H](C(=O)OC)N(S(=O)(=O)c4c(C)noc4C)C2=NC(C(=O)OC)=C(C(=O)OC)[C@H]13 |  | inactive: -19.7% [at 11.7 µM]
4 | N#C/C(=C(/O)CCl)c1nc2c(s1)CCc1ccccc1-2 | inconclusive: 15.8 µM [quencher, side channel, partial curve] | 
5 | CCOC(=O)C1(CCCc2ccccc2)CCN(Cc2cnc(C)s2)CC1 | inconclusive: 3.16 µM [fluorescent, side channel, full curve] | 
6 | COc1ccc(/C=C2\SC(=S)N(CCCC(=O)NNC(=O)c3ccccc3O)C2=O)cc1 | inconclusive: 14.1 µM [quencher, side channel, partial curve] | 
7 | N#Cc1c(N2CCSCC2)nsc1-c1ccccc1Cl | inconclusive: 3.16 µM [inhibitor, partial curve] | 
8 | Cc1ccc(S(=O)(=O)NNC(=O)c2cnn(-c3ccccc3)c2-n2cccc2)cc1 | inconclusive: 3.98 µM [inhibitor, partial curve] | 
9 | O=C(Nc1ccc(Cl)c(Cl)c1)c1ccc(Cn2c(=O)[nH]c3ccsc3c2=O)cc1 | inactive | 
10 | O=C(c1cccc(Oc2ccccc2)c1)N1CCN(c2ccccn2)CC1 | inconclusive: 11.2 µM [fluorescent, side channel, partial curve] | 
11 | FC(F)(F)c1nc(NCC2CCCO2)c2nnn(Cc3ccccc3Cl)c2n1 (centres undefined) | inconclusive: 12.6 µM [fluorescent, side channel, partial curve] | 
12 | O=C(/C=C/c1cccs1)NC(=S)Nc1ccccc1 | inconclusive: 25.1 µM [quencher, side channel, partial curve] | 
13 | COc1cc2c(c(OC)c1OC)-c1ccc(OC)c(=O)cc1[C@@H](NC=O)CC2 | inactive | 
14 | CCOc1ccc(/C=C/C(=O)Nc2ccc(C(N)=O)cc2)cc1OC | inconclusive: 35.5 µM [fluorescent, side channel, single point] | 
15 | COc1ccc(CNc2nc(-c3ccc(N(C)C)cc3)nc3ccccc23)c(OC)c1 | inconclusive: 35.5 µM [fluorescent, side channel, single point] | 
16 | CCOc1ccc2c3c(c(=O)oc2c1OCC)CCCC3 | inactive | 
17 | O=C1Nc2ccccc2O/C1=C\c1ccccc1Br | inconclusive: 31.6 µM [inhibitor, single point] | 
18 | CC(=O)c1sc(NC(=O)COc2ccc(C)c(C)c2)nc1C | inactive | 
19 | CO[C@@H]1[C@@H]2OP(=O)(O)OC[C@H]2O[C@H]1n1c(Sc2ccc(Cl)cc2)nc2c(N)ncnc21 | inconclusive: 8.91 µM [inhibitor, partial curve] | 
20 | COc1ccc2c(c1)c(=O)oc1cc(OCC(=O)NCC3CCC(C(=O)O)CC3)ccc12 (centres undefined) | inconclusive: 31.6 µM [inhibitor, single point] | 
21 | CC1CN(c2nnc(-c3ccccc3)c3ccccc23)CC(C)O1 (centres undefined) | inconclusive: 25.1 µM [fluorescent, side channel, partial curve] | 
22 | CC(=O)N1C(=O)/C(=C2\SC(=S)N(NC(=O)c3ccc(O)cc3)C2=O)c2ccccc21 | inconclusive: 28.2 µM [quencher, side channel, single point] | 
23 | COc1cccc(CNC(=O)c2nnn(CC(=O)Nc3ccc(Br)cc3)c2N)c1 | inconclusive: 39.8 µM [fluorescent, single point] | 
24 | COc1cc(/C=C2/C(=N)N3C(=NC2=O)SN=C3S(C)(=O)=O)ccc1OC(=O)c1ccco1 | inconclusive: 12.6 µM [quencher, side channel, partial curve] | 
25 | COC(=O)c1ccccc1S(=O)(=O)N1CCCC(c2nc3c(nnn3Cc3ccc(C)cc3)c(=O)[nH]2)C1 (centres undefined) | inconclusive: 5.62 µM [quencher, side channel, single point] | 
26 | Cc1ccc(C)c(-n2c3nc(=O)[nH]c(=O)c-3cc3cc([N+](=O)[O-])ccc32)c1 | inconclusive: 12.6 µM [quencher, side channel, partial curve] | 
27 | CC(=O)N1CCN(c2nc(-c3ccco3)c3c(c2C#N)CC(C)(C)SC3)CC1 | inconclusive: 3.98 µM [inhibitor, single point] | 

Row | SMILES | Potency | FP activity change, negative = inhibition
28 | CC1(C)C2CCC1(C)C(NCC(O)COc1ccc(C#N)cc1)C2 (centres undefined) | inconclusive: 11.2 µM [inhibitor, partial curve] | 
29 | S=c1[nH]c2ccccc2n2c(=S)[nH]nc12 | inconclusive: 17.8 µM [quencher, side channel, single point] | 
30 | O=C(c1ccc(Oc2ccc(Cl)cc2)c([N+](=O)[O-])c1)N1CCCC1 | inconclusive: 3.55 µM [inhibitor, full curve, poor fit] | 
31 | S=c1[nH]nc(-c2ccccc2)n1/N=C/C=C/c1ccco1 | inconclusive: 22.4 µM [quencher, side channel, partial curve] | 
32 | COc1ccc(Nc2ccnc(Nc3ccc(OC)cc3)n2)cc1 | inconclusive: 8.91 µM [quencher, side channel, partial curve] | 
33 | Cc1ccc(C(=O)NNC(=O)CSc2nnc3c(n2)[nH]c2ccc(C)cc23)cc1 | inconclusive: 28.2 µM [inhibitor, single point] | 
34 | O=C(c1cnccn1)N1CCC2(CC1)CN(c1ncccn1)C2 | inactive | 
35 | O=C(c1cccs1)c1ccc(-c2cccs2)s1 | inconclusive: 15.8 µM [quencher, side channel, partial curve] | 
36 | COc1ccc(NC(=O)c2ccc(NC(=O)C3CC3)cc2)cc1 | inconclusive: 39.8 µM [fluorescent, side channel, single point] | 
37 | Cc1ccc(-n2ncc(C(=O)NCC3CCN(C4CCCC4)C3)c2C2CCN(C(=O)OC(C)(C)C)CC2)cc1C (centres undefined) | inconclusive: 5.62 µM [fluorescent, side channel, full curve, poor fit] | 
38 | CC1CC(C)CN(CCCNC(=O)c2ccc3c(c2)N(Cc2ccccc2)C(=O)c2ccccc2S3=O)C1 (centres undefined) | inconclusive: 39.8 µM [inhibitor, single point] | 
39 | CCOc1ccc(NC(=O)Cn2ncc3ccccc32)cc1 | inactive | 
40 | CC[C@H](C)[C@H](NC(=O)[C@H](CCCNC(=N)N)NC(=O)[C@@H](NC(=O)[C@H](CCCNC(=N)N)NC(=O)[C@H](CCCCN)NC(=O)[C@H](CCCNC(=N)N)NC(=O)[C@@H](NC(=O)[C@H](CC(N)=O)NC(=O)[C@@H](N)CS)[C@@H](C)O)[C@@H](C)CC)C(=O)N[C@@H](CCC(N)=O)C(=O)N[C@@H](CCCNC(=N)N)C(=O)NCC(=O)N1CCC[C@H]1C(=O)NCC(=O)N[C@@H](CCCNC(=N)N)C(=O)N[C@@H](C)C(=O)N[C@@H](Cc1ccccc1)C(=O)N[C@H](C(=O)N[C@H](C(=O)N[C@H](C(=O)NCC(=O)N[C@@H](CCCCN)C(=O)O)[C@@H](C)CC)[C@@H](C)O)C(C)C | inconclusive: 39.8 µM [inhibitor, single point] | 
41 | CN(C)c1ccnc(-n2cccc2/C=N/OCc2ccccc2)c1C#N | inactive | 
42 | CCOc1ccc2nc(N3C(=O)/C(=C/c4ccc(Cl)cc4)NC3=S)sc2c1 | inconclusive: 31.6 µM [quencher, side channel, single point] | 
43 | CCN(CC)CCNC(=O)c1cc2c(-c3ccc(Cl)cc3)nn(C)c2s1 | inactive | 
44 | COc1ccc(CNc2nc(-c3ccccc3)nc3ccccc23)cc1OC | inconclusive: 7.08 µM [quencher, side channel, partial curve] | 
45 | CC(C)OC(=O)c1c2c(n3ccccc13)C(=O)c1ccccc1C2=O | inconclusive: 35.5 µM [inhibitor, single point] | 
46 | N#Cc1ccc(-c2ccc(F)cc2)nc1Oc1ccc(F)cc1 | inconclusive: 20 µM [fluorescent, side channel, partial curve] | 
47 | CCOC(=O)N1CCN(C(=O)c2cn(CC)c3ccc(S(=O)(=O)N4CC(C)CC(C)C4)cc3c2=O)CC1 (centres undefined) | inconclusive: 39.8 µM [inhibitor, single point] | 
48 | COc1ccc(-c2nn(-c3ccccc3)cc2C(=O)Nc2ccc(C(=O)O)cc2)cc1 | inconclusive: 20 µM [quencher, side channel, partial curve, poor fit] | 
49 | CCOC(=O)c1sc2nc(CC(=O)OC)nc(NCc3ccc(F)cc3)c2c1C | inactive | 
50 | Cc1cccc(CSc2nnc(NC(=O)c3ccco3)s2)c1 | inconclusive: 35.5 µM [quencher, side channel, single point] | 
51 | O=[N+]([O-])c1ccc2nc(NS(=O)(=O)c3ccc(F)cc3)sc2c1 | inconclusive: 25.1 µM [quencher, side channel, partial curve] | 
52 | O=c1c2ccccc2nc(/C=C/c2c[nH]c3ccccc23)n1-c1ccc([N+](=O)[O-])cc1 | inconclusive: 10 µM [quencher, side channel, partial curve] | 
53 | CC(C)Cn1c(=O)c2c(nc3n2CCCN3Cc2ccccc2)n(C)c1=O | inconclusive: 39.8 µM [inhibitor, partial curve] | 
54 | CCOC(=O)c1c(NC(=O)C[n+]2ccc(Cc3ccccc3)cc2)sc(C)c1C | inconclusive: 1.26 µM [fluorescent, side channel, full curve] | 
